Hit rate of the full screen: of about 50,000 compounds, about 800 (1.6%) showed an effect of 50% or more. This is one part of the list.
molecular target: Bcl-2-like protein 10 (Homo sapiens) (UniProt Q9HD36); experiment: TR3 peptide-Bcl-B binding displacers, biochemical primary FP assay, phenotype converters (AID 1240); details: GST-Bcl-B / FITC-TR3 peptide fluorescence polarization; stronger effect = higher value; compound at 3.75 mg/L;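 further: 0% = Bcl-B with tracer peptide and DMSO and 100% = tracer peptide lacking Bcl-B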
Sequence of UniProt Q9HD36 (Q9HD36 whole entry, looked up): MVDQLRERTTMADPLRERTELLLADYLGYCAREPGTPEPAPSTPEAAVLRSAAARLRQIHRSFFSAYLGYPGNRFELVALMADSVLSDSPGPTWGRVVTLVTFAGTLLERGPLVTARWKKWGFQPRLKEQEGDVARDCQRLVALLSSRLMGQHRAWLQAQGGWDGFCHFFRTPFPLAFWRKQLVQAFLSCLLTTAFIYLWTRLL

Row | SMILES | displacement
1 | CCOc1ccccc1NC(=O)c1ccc(N(Cc2ccc(Cl)cc2)S(C)(=O)=O)cc1 | 14.1%
2 | CC(=O)NCCOc1ccc2oc3ccccc3c2c1 | 1.1%
3 | O=C(/C=C/c1ccc(-c2cccc([N+](=O)[O-])c2)o1)c1ccco1 | 79.3%
4 | O=C1NC(=S)S/C1=C/c1ccc(O)c(Br)c1 | -31.6%
5 | O=C1/C(=C\c2ccccc2)SC(=S)N1NS(=O)(=O)c1ccccc1 | 8.8%
6 | NS(=O)(=O)c1cccc(NC(=O)c2ccc(-c3ccccc3)cc2)c1 | 1.4%
7 | O=C(CN(c1ccccc1)S(=O)(=O)c1ccccc1[N+](=O)[O-])NCCc1ccccc1 | 11.3%
8 | Cc1ccc2cc(C)c(NCCO)nc2c1 | 7.2%
9 | O=C(O)CN1C(=O)/C(=C\c2ccc(OCc3ccc(Cl)cc3)cc2)SC1=S | 8.4%
10 | CCOC(=O)C1SC(c2ccccc2)C(C#N)C1(O)c1ccccc1 (stereo not given) | -1.8%
11 | CCc1ccc(-c2nc(-c3ccc(F)cc3)no2)cc1 | -4.8%
12 | COC(=O)c1sccc1NC(=O)/C=C/c1ccc(C(C)(C)C)cc1 | -3.1%
13 | COc1ccc(-c2nc(Cc3ccc(OC)c(OC)c3)no2)cc1 | -8.7%
14 | CC(=O)n1cc(/C=C2\N=C(c3cccs3)OC2=O)c(-c2ccccc2)n1 | -0.1%
15 | O=C(Nc1ccccc1)c1ccccc1OCC(O)CN(Cc1ccccc1)Cc1ccccc1 (stereo not given) | -7.2%
16 | COC(=O)CN(c1ccc(C)cc1)S(=O)(=O)c1ccccc1 | 9.4%
17 | c1ccc(C2=NN3COc4ccccc4C3C2)cc1 (stereo not given) | -1.1%
18 | COc1ccc(/C=C/C(=O)c2cccc([N+](=O)[O-])c2)c(OC)c1 | 1%
19 | O=C(Nc1ccc(SC(F)F)cc1)/C(=C/c1ccc(Cl)cc1)NC(=O)c1ccccc1 | 10.7%
20 | O=C(COc1ccc(I)cc1)N/N=C/c1ccc(-c2ccc([N+](=O)[O-])cc2)o1 | 59%
21 | CCC(=O)c1ccc(N2CCOCC2)c(F)c1 | -18.9%
22 | CCC(C(=O)N1CCN(c2ccc(F)cc2)CC1)c1ccccc1 (stereo not given) | -7.7%

Row | SMILES | displacement
23 | C=CCN1C(=O)/C(=C\c2cc(Br)cc(Cl)c2O)C(=O)NC1=S | 7.9%
24 | COc1ccc(CC(=O)NNC(=O)COc2ccc(Cl)cc2)cc1OC | -6.4%
25 | Cc1ccc(S(=O)(=O)N2CCSC2c2ccc(Br)cc2)cc1[N+](=O)[O-] (stereo not given) | 10.6%
26 | COc1ccc(N2C(=O)c3ccc(OCCOc4ccc5c(c4)C(=O)N(c4ccc(OC)cc4)C5=O)cc3C2=O)cc1 | 7.3%
27 | Cc1cccc(C)c1NC(=O)CSc1nnc(-c2ccco2)n1-c1ccccc1 | 12%
28 | C/C(=N\NC(=O)CNC(=O)C(c1ccccc1)c1ccccc1)c1ccccc1 | 23.1%
29 | COc1cc(NC(=O)c2cccnc2)c(OC)cc1Br | -7.8%
30 | COc1cc(NC(=O)c2ccc(Cl)cc2Cl)ccc1NC(=O)c1cc2ccccc2o1 | -2.6%
31 | CCCC1=C(C(=O)OCC)C(c2ccc(CC)cc2)NC(=O)N1 (stereo not given) | -8.5%
32 | COc1ccc(NC(=O)c2cc3ccccc3o2)cc1OC | -0.8%
33 | O=c1[nH]c(/C=C/c2ccc(N3CCOCC3)cc2)nc(O)c1[N+](=O)[O-] | -23.7%
34 | CC(=O)N(C1=C(N2CCCCC2)C(=O)c2ccccc2C1=O)c1ccc(C)cc1 | 11.1%
35 | Cc1cc(C)nc(/N=C(/N)Nc2cccc([N+](=O)[O-])c2)n1 | -2.1%
36 | CCCCOc1ccc(NC(=O)C2CC=CCC2C(=O)O)cc1 (stereo not given) | 3.2%
37 | Cc1ccc(S(=O)(=O)N2CCN(C(=O)c3cccs3)CC2)cc1 | -5%
38 | COc1cccc2cc(C(=O)Nn3cnnc3)c(=O)oc12 | -13%
39 | Cc1c(C)c2ccc(OCC(=O)N(C)C)cc2oc1=O | 7.3%
40 | O=C(c1ccccc1)c1cc2c(cc1Cl)OCCO2 | 5.6%
41 | CCn1ccnc1C(O)c1cc(OC)ccc1OC (stereo not given) | 3.9%
42 | COc1cc(NC(=O)CCCOc2ccc(Cl)cc2Cl)c(OC)cc1Cl | 0.2%
43 | O=C(c1ccccc1Br)N1CCN(c2ccc([N+](=O)[O-])cc2Cl)CC1 | 11.1%
44 | Cc1cc(C)cc(NC(=O)CN2C(=O)c3ccccc3C2=O)c1 | -2.1%

Row | SMILES | displacement
45 | CCOC(=O)c1c(-c2ccc(Cl)cc2)csc1NC(=O)COc1ccc(OC)cc1 | 9.3%
46 | O=C(N/N=C/c1cccnc1)c1cc(-c2ccc3ccccc3c2)n[nH]1 | -3.8%
47 | CCOc1ccc(Br)cc1/C=C(\C#N)c1nc2ccc(C)cc2[nH]1 | 72.9%
48 | Cc1ccc(-c2csc(/C(C#N)=C\c3ccc(C)s3)n2)cc1 | -2.9%
49 | Nc1ccc(C(c2ccccc2)c2ccc(N)cc2)cc1 | -2.1%
50 | Cc1ccc(N2C(=O)c3ccc4c5c(ccc(c35)C2=O)CC4)c(C)c1 | 11.9%
51 | Cc1ccc(Cn2c3ccccc3n3cc(-c4ccc([N+](=O)[O-])cc4)nc23)cc1 | 23.1%
52 | CC(C)C1S/C(=N/N=C/c2ccco2)NC1=O (stereo not given) | 46.5%
53 | O=C(Cn1cc(C=C2C(=O)NC(=S)NC2=O)c2ccccc21)Nc1ccccc1 | 130%
54 | Cc1ccc(NC(=O)CSc2ccccn2)cc1 | 11.9%
55 | CC(C)(C)c1ccc(C(=O)Nc2cccc(Br)c2)cc1 | -12.4%
56 | COc1cc(NC(=O)c2cccs2)c(OC)cc1Br | -59.2%
57 | COC(=O)c1ccccc1NC(=O)COc1ccccc1 | -11.9%
58 | COc1ccc(-c2nnc(NC(=O)c3cccs3)s2)cc1OC | -5.7%
59 | O=C(/C=C/c1cccc([N+](=O)[O-])c1)Nc1ccc(Cl)cn1 | 6%
60 | COc1cc(C=O)ccc1Oc1nc(Nc2ccc(F)cc2F)nc(N2CCOCC2)n1 | 16.8%
61 | C=C1CSc2nc(=O)c3c4c(sc3n21)CCCC4 | -13.2%
62 | Cc1nccn1-c1c([N+](=O)[O-])c(=O)n(C)c2ccccc12 | 7.2%
63 | CC(=O)NCC1=C(NC(C)=O)C2CC1C(C)(C)C2C (stereo not given) | -4.4%
64 | O=C(Nc1ccc(OC(F)(F)F)cc1)c1cc2ccccc2o1 | -3.9%
65 | COc1ccc(NS(=O)(=O)c2cc(C(=O)c3ccc(Br)cc3)ccc2C)cc1 | 0.9%
66 | Nc1nc(-c2ccccc2)c(N)c(-c2ccccc2)n1 | 6.9%

Row | SMILES | displacement
67 | CCN(CC)CCNC(=O)c1ccc(NC(=S)NC(=O)c2cccnc2)cc1 | 18.6%
68 | CCOc1ccc(NC(=O)C2C3CCC(C3=C(C)C)C2C(=O)O)cc1 (stereo not given) | -4.5%
69 | CC12CC3(C)CC(C)(C1)CC(C(=O)NCCO)(C2)C3 | 0.3%
70 | O=C(NC1CCS(=O)(=O)C1)/C(=C\c1ccco1)NC(=O)c1ccccc1 (stereo not given) | 3.9%
71 | NC(=O)CSc1nc2ccc([N+](=O)[O-])cc2s1 | 15.8%
72 | CC(=O)c1ccc(NC(=O)C2CC=C(C)CC2C(=O)O)cc1 (stereo not given) | 1.8%
73 | COc1cccc(C(=O)Nc2cccc(-c3cn4ccccc4n3)c2)c1 | 8.5%
74 | CCOC(=O)CNC(=O)c1ccc(Br)o1 | 3.4%
75 | O=C(Nc1cccc(-c2nc3cc(Cl)ccc3o2)c1)c1ccc(Br)o1 | -7.8%
76 | O=C(Nc1ccc(-c2nc3ccccc3o2)c(O)c1)c1ccc(-c2ccc(Cl)cc2Cl)o1 | 41.3%
77 | CCOC(=O)c1c(-c2ccccc2)oc2cc(Br)c(OC(=O)CC)cc12 | 8.8%
78 | Cc1ccc(C)c(NC(=O)C2CCC(C)(C(=O)O)C2(C)C)c1 (stereo not given) | 5.9%
79 | Cc1cc(/C=C2\C(=O)NC(=O)N(c3cccc(F)c3)C2=O)c(C)n1-c1cccc([N+](=O)[O-])c1 | 12.3%
80 | C=C(C)Cn1c(SCC(=O)NN)nnc1-c1ccc(Br)cc1 | -13.1%
81 | CC(=O)/C=C(\C)NC(=O)c1sc2ccccc2c1Cl | 0.3%
82 | C=CCOc1c(Cl)cc(/C=C2\C(=O)NC(=O)N(c3ccc(C)cc3)C2=O)cc1OC | -2.1%
83 | O=C(Nc1cc(NC(=O)c2ccccc2)cc(C(=O)Nc2nccs2)c1)c1ccccc1 | 4.4%
84 | Cc1c(C(=O)Nc2ccccc2C(F)(F)F)cccc1[N+](=O)[O-] | -9.3%
85 | O=C1CC(c2ccccc2[N+](=O)[O-])c2ccccc2N1 (stereo not given) | -5.1%
86 | O=C1C(=Cc2ccc(Cl)cc2)C(=O)c2ccccc21 | 17.1%
87 | O=C(NN=C(/C=C/c1ccccc1)/C=C/c1ccccc1)c1ccco1 | -1.7%
88 | CN1C(=O)/C(=C\c2cccc(OCCOc3ccc(Br)cc3)c2)SC1=S | 35%

Row | SMILES | displacement
89 | Cc1csc(-c2coc3cc(O)cc(C)c3c2=O)n1 | 6.8%
90 | O=C1N=c2ccccc2=C1c1sc(=O)n(-c2ccc(O)cc2)c1O | -7.3%
91 | CCC(=O)Nc1sc(C)c(C)c1C(N)=O | -13.1%
92 | COc1ccccc1N1C(=O)NC(=O)/C(=C/c2ccc(OC)c3ccccc23)C1=O | 5.3%
93 | Cc1occc1C(=O)N/N=C/c1cccc(Cl)c1 | 26.3%
94 | O=C(Nc1nnc(-c2ccc(Cl)cc2Cl)s1)c1ccccc1Br | -3.6%
95 | Cc1ccc(C(=O)Nc2ccc(N(C)C)cc2)o1 | 9.4%
96 | COc1ccc(OC)c(Nc2ccc3ccccc3n2)c1 | 33%
97 | CCOc1ccc(NC(=O)/C=C/c2ccc(F)cc2)cc1 | 12.3%
98 | O=C(NCc1ccccn1)C(=O)Nc1ccc(Br)cc1 | 6.8%
99 | COC(=O)C1=CN(Cc2ccccc2)C=C(C(=O)OC)C1c1ccc(Cl)c(Cl)c1 | 2.9%
100 | COc1ccc(C)cc1NC(=O)COc1ccc(C)cc1Br | -6.4%
101 | O=C1C2C3C=CC(CC3)C2C(=O)N1/N=C/c1ccc(I)o1 (stereo not given) | 15.4%
102 | Cc1ccccc1N1OC2C(=O)N(Cc3ccccc3)C(=O)C2C1c1ccc(F)cc1 (stereo not given) | -5.2%
103 | O=C(c1nn2c(C(F)(F)F)cc(-c3cccs3)nc2c1Br)N1CCN(c2ccc(F)cc2)CC1 | 2.1%
104 | O=C(O)CC(Cc1ccc(Br)cc1)C(=O)Nc1ccccc1 (stereo not given) | 12.7%
105 | COc1cc(NC(=O)Cn2nc(C(F)(F)F)c(Cl)c2C)c(OC)cc1Cl | 6%
106 | CC(=O)CC(c1ccccc1)S(=O)(=O)c1ccccc1C (stereo not given) | 0.2%
107 | CC1=C(C(=O)OC2CCCC2)C(c2cccc(Cl)c2Cl)C2=C(CC(C)(C)CC2=O)N1 (stereo not given) | 7.9%
108 | N#CC1=C(N)C(C#N)(C#N)C(c2cccnc2)C2CSCC=C12 (stereo not given) | 48.9%
109 | COc1ccc(C(=O)/C=C/c2ccc(-c3ccc(Cl)cc3Cl)o2)cc1 | 11.6%
110 | COc1cc(/C=N/NC(=O)c2cccc([N+](=O)[O-])c2)cc(I)c1O | -0.6%
